# Measured values from ChEMBL document CHEMBL4888484, “Replenishing the malaria drug discovery pipeline: Screening and hit evaluation of the MMV Hit Generation Library 1 (HGL1) against asexual blood stage Plasmodium falciparum ,using a nano luciferase reporter read-out” (2022).
# In all, about 150,000 compounds went through this assay and about 540 (0.36%) showed an effect of 50% or more. This is one part of the list.
# Test system: Plasmodium falciparum
# Assay: Primary screen in NF54 nanoGlo assay, in single point, at 2uM, 72h; a lower Z score goes with more inhibition
# Type: functional, Erythrocyte
# Details: timepoint 72 hour
SMILES,% Inhibition [%],Z score
C[C@@H](Cn1cccn1)OC(=O)c1ccncc1Cl,-5,0.73
CNc1nc(C)cc(C(=O)N(C)C(C)(C)COC)n1,-10,1.44
O[C@@H](CNc1cc(C(F)(F)F)ccn1)CN1CCOCC1,-11,1.42
O=C(C1=CCCC1)N1CCC(CF)CC1,-2,0.31
COc1ccccc1N1CCN(C(=O)Cn2c3ccccc3c3nnc(-n4nc(C)cc4C)nc32)CC1,6,-0.88
Cc1nc(CC(=O)Nc2cccc(Cl)c2)sc1C(=O)NCc1ccccc1,-4,0.5
CNC(=O)[C@H](CC(C)C)NC(=O)c1cc(Cl)c(Cl)n1C,1,-0.08
CCc1nc(-c2ccccc2)nc(N2CCN(C(=O)[C@H]3CCOC3)CC2)c1Cc1ccc(Cl)cc1,-3,0.43
COc1cccc(/N=C(\NCc2ccccn2)NC(=O)c2ccc(C(F)(F)F)cc2)c1,-5,0.88
Cc1nn(C)c(C)c1[C@H]1OCC[C@@H]1CNC(=O)c1ccc2c(c1)CCC=C2,-12,1.28
Cc1cc(C(=O)N2CCN(c3cccc(C)c3C)CC2)c2c(C)nn(-c3cccc(Cl)c3C)c2n1,-12,1.21
Cn1c(=O)c2sccc2n(CC(=O)NC[C@H]2CCCO2)c1=O,-11,2.12
O=C(Cc1ccsc1)Nc1ccc2c(c1)CCC(=O)N2,-10,1.67
COc1cc(=O)n2c(c1C(=O)NCc1cccc(F)c1)CCNCC2,4,-0.58
COc1ncc(Br)cc1CNC(=O)N[C@H]1COC[C@H]1n1ccnn1,-1,0.1
CCc1nnc(NC(=O)NC2CC(C)(C)NC(C)(C)C2)s1,-41,4.82
CC(=O)c1cccc(NC(=O)Cn2nc3ccc(C(=O)NCc4ccccc4)cn3c2=O)c1,-15,1.34
Cc1c([C@@H]2CCCN2c2ccnc3ccccc23)cnn1C,-1,0.17
CC1(C)OC2C(COS(C)(=O)=O)OC(n3cnc4c(O)ncnc43)C2O1 (stereo unspecified),3,-0.46
COc1cc(C)nc(CN[C@@H](C)c2cccc(-n3cccn3)c2)c1,7,-1.33
Cc1noc(C)c1CN1C(=O)C(=O)N([C@@H](C)c2ccccc2)C1=O,-1,0.12

SMILES,% Inhibition [%],Z score
Cc1cn(CCNc2cc([C@H]3CCOC3)nc(C)n2)nn1,-2,0.25
CN(C(=O)c1ccco1)[C@@H](Cc1ccc(F)cc1F)C1CCN(Cc2cc(F)ccc2F)CC1,-1,0.17
CCOc1ccc(CN2CCOC[C@@H](CO)C2)cc1Cl,1,-0.12
Cc1nn(C)cc1-c1nn(-c2ccc(F)cc2)c(-c2cn(C)nc2C)c1C,29,-3.32
C[C@H]1CCc2nn3ccn(CC(=O)Nc4cccc(F)c4)c(=O)c3c2C1,-7,0.65
Cc1ccccc1OCC(=O)NC[C@](O)(c1ccoc1)c1ccco1,-8,1.35
CCOCC(=O)Nc1ccc2c(c1)OC1(CCCCC1)O2,-10,1.04
COc1cccn2ncc(C(=O)N3C[C@@H](O)CC(F)(F)C3)c12,3,-0.57
CN(C)c1ccc(C(=O)N2CCOC3CCCCC32)cn1 (stereo unspecified),6,-0.96
CCc1ccc(C2CCCCN2c2nc(C(C)OC)ns2)o1 (stereo unspecified),-10,1.5
O=S(=O)(c1cccc(Cl)c1)N1CN(Cc2ccc3c(c2)OCO3)c2nc3ccccc3nc21,28,-3.17
CC[C@H](NC(=O)CCCN1CCCC1)c1cccc(C)n1,-9,1
CN1CCN(CCC(=O)NC[C@]2(c3ccccc3)CC2(C)C)CC1,1,-0.2
CS(=O)(=O)c1ccc(C(=O)Nc2nccc3sccc23)cc1,-2,0.42
O=C(CN1CC[C@H](O)C1)N1c2ccccc2CCc2ccccc21,-7,0.73
CCc1oc(C(=O)O)cc1CN1CCOC[C@@H]1CC1CCOCC1,-14,1.37
O=C(C1CCCC1)N1CCN(Cc2ccccc2)CC1,-8,1.49
CC(C)[C@@H]1CN(c2ncccc2C(N)=O)CCCN1CC1CC1,-4,0.95
CCc1nc([C@H]2CN(C(=O)COc3ccc(Cl)cc3)CC23CCCC3)no1,-17,2.18
O=C(Nc1ncc(Cc2ccc(F)cc2F)s1)[C@H]1CCOC1,-6,0.97
Cc1cc(N[C@]2(c3ccccc3)OC(=O)c3ccccc32)no1,-12,1.38

SMILES,% Inhibition [%],Z score
O=S(=O)(Cl)c1ccc2oncc2c1,-1,0.17
O=C(CNC(=O)C1CCCCC1)Nc1nc2ccccc2s1,-5,0.42
Cc1ccc(-c2cc(C(=O)N3C[C@H](O)CO3)[nH]n2)s1,-6,1.09
Cc1ccc([C@H](C)NC(=O)CCC2CCNCC2)cc1F,-15,2.47
CCCc1noc(CCc2scnc2C)n1,-12,1.19
CCc1nnc(CN2CCCN(c3cccc(Cl)c3C)CC2)o1,4,-0.6
COc1ccc(CNC(=O)c2c(C)noc2-c2ccco2)cc1,-4,0.53
CN(C(=O)CC1CCCc2ccccc21)C1CCCC1S(C)(=O)=O (stereo unspecified),-9,1.25
O=C(NC1(CC2CC2)CCN(S(=O)(=O)Cc2ccccc2)CC1)c1ccccc1,-7,1.35
Cc1ccc2c(C(=O)N[C@@H](C)Cc3ccncc3)cc(C)nc2c1,-4,0.72
CC(C)(C)C(=O)N1CCN(S(=O)(=O)c2cccc3nonc23)CC1,-6,0.73
COc1cc(OC)cc(-c2nc(-c3cn(-c4cccc(Cl)c4)nn3)no2)c1,-10,2.02
COc1ccccc1N1CCN(/C(=N\c2ccccc2)NC(=O)c2ccc(Br)cc2)CC1,-1,0.11
COCCNC1=Nc2ccccc2N[C@]12CCCN(C(=O)c1ccc(C#N)cc1)C2,24,-2.77
COc1cccc(CN2CC(C(=O)N3CCCCC3C)CC2=O)c1 (stereo unspecified),-2,0.3
Cc1ccc(CCNCc2c(C(=O)N3C[C@@H](C)O[C@@H](C)C3)nc3ccc(Cl)cn23)cc1,-8,1.18
Cc1cccc2c1[C@](C)(c1ccccc1)CC(C)(C)N2C(=O)Cc1ccccc1,3,-0.67
C[C@@H](c1ccon1)N(C)C(=O)CCc1cccc(F)c1,-5,0.97
COC[C@H]1CCCN1S(=O)(=O)NCCCC1CCCC1,-3,0.62
Cc1cc(C)c(C#N)c(-c2cccc(C(=O)N3CC=C[C@@H]3C(C)C)c2)n1,-13,1.18
O=C(C1CCN(S(=O)(=O)c2ccc(-c3noc(C4CCCC4)n3)cc2)CC1)N1CCCC1,-17,2.04

SMILES,% Inhibition [%],Z score
COc1ccc(F)c(CN2CCC[C@@]3(CCN(C(=O)CN4CCCC4=O)C3)C2)c1,-15,1.33
CN1CCN(c2ccc(-c3nc(C4CC4)nn3CC(F)(F)F)cc2)CC1,0,0.08
CC1(O)CC(C(=O)N2CC[C@@H](O)[C@H]2c2ccc(Cl)cc2)C1 (stereo partly specified),5,-0.69
OC[C@H]1CC[C@@H](N[C@H]2CCC23CCC3)CC1,-16,1.61
CNC(=O)c1ccnc(N2CCC3(CC2)CC(=O)N(Cc2ccccc2)C3)c1,-22,2.43
CC(C(=O)Nc1ncccn1)N1CCCCC1Cn1cccn1 (stereo unspecified),1,-0.24
Cc1cc(C(=O)NCc2ccccn2)ccc1N(C)S(=O)(=O)c1ccccc1,-15,1.83
Cc1cc(N)n(CC(=O)N2CCC[C@H](c3nnc[nH]3)C2)n1,-8,1.01
CCc1ccc(NCC(=O)NC(=O)NC)c(C(=O)OC)c1,-43,5.1
CC(C)(C)[C@H](NC(=O)c1cscn1)C(F)(F)F,-8,0.89
Cc1ccc([C@H](C)NCc2ncc(-c3ccccc3)s2)s1,7,-1.03
Cn1cc(C(=O)N2CC(COc3ccccc3)C2)nn1,-2,0.34
COc1ccc(S(=O)(=O)N(C)c2cccc(C(=O)N3CCCC3)c2)cc1,9,-1.55
CCc1cccc(C)c1NC(=O)c1ccnc(-c2ccsc2)c1,-6,0.83
CC1CN(C(C)CNCc2cn(C)nc2-c2ccncc2)CC(C)O1 (stereo unspecified),-2,0.17
CN(C[C@]1(O)CCc2ccccc21)C(=O)c1cc(C(N)=O)cs1,-3,0.46
Cc1c(C)n(-c2ccccc2)c2nc(C(=O)N[C@@H](C)c3ccccc3)nc(N3CCCCC3)c12,-8,1.23
CN(C)C(=O)c1ccc(CNC(=O)N(C)C2Cc3ccccc3C2)o1,-7,1.12
O=C(O)[C@H]1CN(S(=O)(=O)CCc2c(F)cccc2F)C[C@@H]1c1ccccc1,-24,3.03
Cn1cc(C(=O)N2CCC(Oc3cccc(C(F)(F)F)c3)CC2)ccc1=O,-11,1.62
